Laboratory results published in the RNAGym collection of RNA variant scans (doi:10.1093/nar/gkz1192).
The source gives no read counts; variants with many changes may rest on few reads.

B1: CPEB3 Ribozyme (parent)
chain: UAACAGGGGGCCACAGCAGAAGCGUUCACGUCGCAGCCCCUGUCAGAUUCUGGUGAAUCUGCGAAUUCUGCUGUAUAUCUC

Variants of: B1
Test: self-cleavage, relative activity (ratio to wild type); higher = more cleavage; in vitro, sequencing
Method in brief: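 Relative activity compares each variant's cleaved/total read fraction with that of the unmutated ribozyme. To get these fractions, barcoded CPEB3 ribozyme libraries from rounds of error-prone PCR were transcribed with T7 RNA polymerase for 5 hours at 37°C and then given 15 min of DNase I treatment before EDTA was added. The RNAs were reverse transcribed with template switching and sequenced on Illumina, and DNA sequencing linked barcodes to variants. A minimum of 5 reads applied, and three batches were averaged.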

| Variant | self-cleavage |
| --- | --- |
| U1C A13G A28C A64G U66C | 0.06 |
| U1C C4U U26G | 0.68 |
| U1C A5U A13G A35G U51C | 0.7 |
| U1C A15C U41C U78C | 0.8 |
| U1C A15G A28G A35G | 0.55 |
| U1C C37U U54A A56G | 0.52 |
| U1C A13G C29G U43A | 0.09 |
| U1C A21G U41A U43C A57G U58C G61U | 0.03 |
| U1C G7A A15G A21G U26C A57G U76A | 0.03 |
| U1C A5U U25C A45G U48C U51A | 0.04 |
| U1C C32U A35G U41A A45G U67C C71G | 0.02 |
| U1C A28G U67C | 0.16 |
| U1C A3U A15U U60A | 0.18 |
| U1C A5G U26A U74A U78C | 0.67 |
| U1C A35U C39A A75U | 0.4 |
| U1C C32G U43C A64G U72A | 0.07 |
| U1C A35G U69C U80C | 1.06 |
| U1C C12U U25A A35U U41G U58C A64U | 0.03 |
| U1C A18U A28U C29G A35G C40G | 0.14 |
| U1C A13C U25A U26C U67C | 0.19 |
| U1C G7A A21G U25A U67A | 0.04 |
| U1C C11U G24C C29A A35G U67C | 0.08 |
| U1C A5G C39U U67C | 0.17 |
| U1C A28G U31A U43C A56U U76A U78C | 0.05 |

| Variant | self-cleavage |
| --- | --- |
| U1C A35G A57U U60A | 0.59 |
| U1C C59G U72A | 0.18 |
| U1C C40A U41C | 0.08 |
| U1C C12U A65G | 0.75 |
| U1C A5G U26C C29G A45G | 0.09 |
| U1C A5G G53U C79U | 0.99 |
| U1C A3U C40U A47G | 0.52 |
| U1C A28U U76A | 0.67 |
| U1C A21G U25C U74A U78G | 0.16 |
| U1C A20G G73A | 0.74 |
| U1C A18C A21G A35G C81U | 0.22 |
| U1C A45G A77G | 0.9 |
| U1C A21G A28C G73U U74A | 0.49 |
| U1C A28U A57G A64G | 0.55 |
| U1C A15G U25C C79U | 0.07 |
| U1C A13G C38A U78C | 0.31 |
| U1C A3G A18G U43C | 0.58 |
| U1C A64U C71A | 0.19 |
| U1C A21U U41A | 0.48 |
| U1C A18U A20C C27U | 0.06 |
| U1C A18G A47C U60C A77G U80G | 0.01 |
| U1C A35U U72C | 0.5 |
| U1C A13G C40A A45G | 0.39 |
| U1C A64G U67C | 0.17 |

| Variant | self-cleavage |
| --- | --- |
| U1C A5U A15G U26C C32A | 0.31 |
| U1C A5C C11G A28G U51A | 0.11 |
| U1C A3G A56G A65G | 0.32 |
| U1C A20G A57G U67C U80C | 1.13 |
| U1C A20G A28G A35U U43C U80C | 0.04 |
| U1C A28G G33A A64G A65G U69A | 0.12 |
| U1C A21G C44A A64G U78C | 0.14 |
| U1C A5G C29G U41A | 0.51 |
| U1C C40U A47G | 0.24 |
| U1C A18G U25C C40A G42U U80C | 0.09 |
| U1C A5G U26C U51C | 0.1 |
| U1C A15G C29U U66C | 0.05 |
| U1C A5G A21U C39U U67C U74C | 0.05 |
| U1C A20U A56U U60C U80C | 0.21 |
| U1C C14U U69A | 0.69 |
| U1C A13C A21G | 0.28 |
| U1C A13G A18G U51A U54C U72C | 0.08 |
| U1C A18U U69C U76C | 0.31 |
| U1C A5G A56G U72C | 0.63 |
| U1C A35U C40A U54A A75U A77G | 0.31 |
| U1C C11A A13U U25A C39A U54A U69G | 0.03 |
| U1C A15G U58A U67C U72C | 0.3 |
| U1C A13G U78C | 0.47 |
| U1C A15G C62U | 0.29 |

| Variant | self-cleavage |
| --- | --- |
| U1C A5G U67C C71G A77G | 0.12 |
| U1C A21G U48C A57G A64G | 0.16 |
| U1C A28G C37U C39A U41G | 0.06 |
| U1C C11G C23U A28G U60A U69C U74C | 0.04 |
| U1C C11G U31C A45G U66C G73A | 0.06 |
| U1C A56C U78A | 0.4 |
| U1C C29U A45U A56G U60C C62U | 0.07 |
| U1C A15U U26A U48A U54C | 0.05 |
| U1C A35G A45G U54A | 1.2 |
| U1C A3G A65G | 0.5 |
| U1C A13G U72A | 0.39 |
| U1C A28G U58A U69C | 0.14 |
| U1C A21U A56G | 0.12 |
| U1C A47G C50A A56G C62U A64G U67C | 0.07 |
| U1C C12U U31C A35G U69G U78A | 0.88 |
| U1C A28G A35U G73C | 0.56 |
| U1C A15U A56G U67C | 0.48 |
| U1C G7A A28C A65G U69A U72C | 0.04 |
| U1C A15C U67C | 0.08 |
| U1C A13G U69C A77G C79U | 0.45 |
| U1C A35G G36A A64U U67C | 0.1 |
| U1C A13G A18G U26C | 0.06 |
| U1C A15U A18G A56G | 0.53 |
| U1C A5G U25C | 0.14 |

| Variant | self-cleavage |
| --- | --- |
| U1C A15G A21G A47G U54C U60A C62U | 0.04 |
| U1C A28G U51A U66C | 0.37 |
| U1C A18C A65G U66A C71U U74C | 0.06 |
| U1C A5U A20G A35C A64G U67C | 0.94 |
| U1C A35U G46U U49A A65G | 0.18 |
| U1C A56G A57G | 0.4 |
| U1C A13G U26A G36A | 0.3 |
| U1C A28G U31C G36A A77G | 0.07 |
| U1C A13G C29G A47G U69C | 0.22 |
| U1C A20G C29U U51A U54C U60A A64U | 0.08 |
| U1C A28U U49C U60A | 0.18 |
| U1C C34U G42A A45G | 0.22 |
| U1C C27G U49A | 0.26 |
| U1C C27U A45U U51C U69C | 0.16 |
| U1C A3G A20G U41C U43C | 0.71 |
| U1C A15G U41A | 0.08 |
| U1C A20G C40U | 0.38 |
| U1C C40G A45U U60A | 0.16 |
| U1C A5U A56U U58C U74C | 0.25 |
| U1C A15G A56U U67C | 0.12 |
| U1C A15C A28U A35U | 0.19 |
| U1C A45G U78A | 0.79 |
| U1C A3G A13G U41C | 0.54 |
| U1C A15G A28G | 0.79 |

| Variant | self-cleavage |
| --- | --- |
| U1C A20G U67A U72C | 0.61 |
| U1C C11A A28G U66C | 0.08 |
| U1C A13G U69A | 0.45 |
| U1C A5G U51C A57G C62U A65G U67C | 0.09 |
| U1C A56U U69A | 0.29 |
| U1C A21G G30A U31C | 0.07 |
| U1C A18U U31A | 0.07 |
| U1C A3G U72C | 1.21 |
| U1C C17U U41C U74C U76C | 1 |
| U1C A13G A77U | 0.96 |
| U1C A13G G36U | 0.36 |
| U1C A3G U31C U60C U72C U76A | 0.56 |
| U1C C27U G33A | 0.06 |
| U1C A13G A15G A56G U60C U80C | 0.29 |
| U1C A35G A64G U76C | 1.18 |
| U1C C12U U60A U72A | 0.53 |
| U1C A28U A56G A64U | 0.19 |
| U1C A5U A21G U69C U80C | 0.17 |
| U1C A13G U49C | 0.33 |
| U1C A5G A28U A35G | 1.02 |
| U1C A5G G9A C17U A21U | 0.05 |
| U1C C40U A45U U48C U69C U78C | 0.05 |
| U1C C12U C29U A35G U69C A75U | 0.14 |
| U1C A18U U60C C79G | 0.11 |

| Variant | self-cleavage |
| --- | --- |
| U1C A3U A5C A18G A20G U25A | 0.71 |
| U1C G6A U69C | 0.21 |
| U1C C39U G63A | 0.64 |
| U1C A13U A35U U41C U51A A75G | 0.19 |
| U1C A18G U26C C32A C37A A45G | 0.05 |
| U1C A3U U41C U69C | 0.44 |
| U1C C32U U74C | 0.41 |
| U1C A28G A45U U72G | 0.28 |
| U1C A15G A56G G73U | 0.51 |
| U1C A20G U41A A64G U72C C79A | 0.04 |
| U1C G6U A47G A57U | 0.09 |
| U1C G7A A15U U43C | 0.06 |
| U1C C17A U60A U66C U69A U72A | 0.04 |
| U1C C12A U41C U43A U49C A57G G63U | 0.23 |
| U1C A15U U25C C62U | 0.25 |
| U1C A35G U49A | 1.24 |
| U1C C29U U48C U69A | 0.07 |
| U1C A57U A77U | 0.65 |
| U1C C12A U49C U60A U78C | 0.07 |
| U1C A18G U76C | 0.51 |
| U1C A13G A47U U49C A57G C79A | 0.44 |
| U1C A18C A21G A28U | 0.32 |
| U1C A13G A15G A18U U43C C62U U66C | 0.05 |
